Reference: the supplement of paper PMC10338343
± gives the standard deviation. The entries are a selection whose mix differs from that of the whole data set.

Test system: MIWI (PIWIL1) piRISC loaded with L1MC piRNA (30 nt)
Experiment: pre-steady-state target cleavage rate (min^-1); MIWI and MILI are mouse PIWI proteins and EfPiwi is from a freshwater sponge; tags in brackets are library labels; higher = faster piRNA-guided slicing of the target
Settings: guide: L1MC piRNA 5'p-UAACUAAAUACUAUGCAAGCUGUAGGUCCU
How it was run: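 Cleave-'n-Seq reactions paired 0.1 nM transcribed, DNA-blocked target RNA library with 1 nM active affinity-purified piRISC holding one synthetic guide, plus or minus 500 nM GTSF1 partner protein, in HEPES–potassium acetate buffer at 33 °C for 0–8 or 0–960 min. After sequencing of uncleaved targets and normalisation to depth and weakly complementary targets, the pre-steady-state cleavage rate was taken from a burst-and-steady-state fit. Three trials were pooled, and k3 was capped at 0.0001 min^-1.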

[1] = auxiliary factor: 500 nM mouse GTSF1
[2] = auxiliary factor: none (no GTSF1)

Sequence | pre-steady-state target cleavage rate [1] | pre-steady-state target cleavage rate [2]
UCCUGGAUCAGCUUGCAUACUAUAUAGUUA | 0.0652 ± 0.0081 | 0.00966 ± 0.0032
UCCUGGAUGAGCUUGCAUAGAAUAUAGUUA | 0.0274 ± 0.0077 | 0.00476 ± 0.0035
UGGACCUAGAGCUUGGAUAGUAUUUAGUUA | 1.25 ± 0.076 | 0.0446 ± 0.0094
UCCUGGAACAGCUUGCAUAGUUAUUUAGUUA | 0.0374 ± 0.0091 | 0.00591 ± 0.0025
UCGACCUAGAGCUUGGAUAGUAUUUAGUUA | 1.25 ± 0.042 | 0.0475 ± 0.0077
UCCUGGAUGUCCUUGCAUAGUAUUCAGUUA | 0.0187 ± 0.0062 | 0.00481 ± 0.0019
UGGACCAACAGCUUGCUUAGUAUUUAGUUA | 1.64 ± 0.092 | 0.0497 ± 0.01
UCCUCCUACAGCUUGCAUAGUAUAAUGUUA | 0.346 ± 0.027 | 0.0146 ± 0.0024
UCCUGGUACAGCUUGCAUAGUAUAAAGUUA | 0.296 ± 0.053 | 0.0118 ± 0.0031
UCGACCUUGAGCUUGCAUAGUAUUUAGUUA | 0.789 ± 0.057 | 0.0478 ± 0.0086
UGGACCUACAGCUUGCAUAGUUUAUAGUUA | 0.103 ± 0.011 | 0.0119 ± 0.0036
UCCACCUUCUGCUUGCAUAGUAUUUAGUUA | 0.761 ± 0.028 | 0.0489 ± 0.0085
UGGACCAACAGCUUGCAUAGUAUUUUCAAA | 0.279 ± 0.041 | 0.00581 ± 0.0024
UCCACCUACAGCUUGGAUAGAAUUUAGUUA | 0.296 ± 0.042 | 0.0112 ± 0.0031
AGGACCUACAGCUUGCAUAGUAUUUCAGUUA | 0.735 ± 0.08 | 0.129 ± 0.034
UCCUCCUACUGCUUGCAUAGUAUUAAGUUA | 0.414 ± 0.025 | 0.0179 ± 0.0024
UCCUGGAUCAGCUUGCAUAGUAUUUUCAAA | 0.206 ± 0.025 | 0.00365 ± 0.0025
UCCUGGAUGAGCUUGGAUAGUAUUUAGUUA | 0.652 ± 0.051 | 0.0464 ± 0.0087
UCCUGGAUGUCCUUGCAUAGUAUUGUAGUUA | 0.0352 ± 0.009 | 0.00527 ± 0.0026
UCCACCUACAGCUUGGAUAGUAUUUAGAAA | 0.297 ± 0.045 | 0.00249 ± 0.002

Sequence | pre-steady-state target cleavage rate [1] | pre-steady-state target cleavage rate [2]
UCCUCCUACAGCUUGCUUAGUAUUUAGUUA | 1.28 ± 0.06 | 0.0241 ± 0.0053
UCCUGGAUGAACUUGCAUAGUAUUUAGUUA | 0.499 ± 0.035 | 0.0175 ± 0.0053
UCCUGGAUCAGCUUGUCAUAGUAUUUAGUUA | 0.157 ± 0.019 | 0.00402 ± 0.0027
UCCACCUCACAGCUUGCAUAGUAUUUAGUUA | 1.06 ± 0.051 | 0.0701 ± 0.012
UCCACCUAGAGCUUGCAUAGUAUUUAGAAA | 0.237 ± 0.04 | 0.00281 ± 0.0027
UCCACCUACAGCUUGCAAAGUAAUUAGUUA | 0.45 ± 0.031 | 0.00911 ± 0.0032
UCCUCCUACUGCUUGCAUAGUAUUUAGUUA | 1.02 ± 0.036 | 0.0456 ± 0.0061
UCCUGGAUCAGCUUGGAUAGUAUUUUGUUA | 0.414 ± 0.043 | 0.0193 ± 0.0042
UCGACCUACAGCUUGCAAACUAUUUAGUUA | 0.327 ± 0.021 | 0.00749 ± 0.0023
UCCUGGAUGAGCUUGGCAUAGUAUUUAGUUA | 0.332 ± 0.083 | 0.00856 ± 0.0041
UCCUGGAUCAGCAUGCAUAGAAUUUAGUUA | 0.11 ± 0.013 | 0.00583 ± 0.0026
UCCUCCUACAGCUUGGAUAGAAUUUAGUUA | 0.332 ± 0.046 | 0.0124 ± 0.0032
UCCAGCUACAGGUUGCAUAGUAUUUAGUUA | 0.959 ± 0.046 | 0.0231 ± 0.0034
UCCACCUACGCUUGCAUAGUAUUUAGUUA | 0.998 ± 0.04 | 0.0451 ± 0.0077
UCCUCCUACACCUUGCAUAGUAUUUACAAA | 0.34 ± 0.05 | 0.00296 ± 0.0025
UCCACGAACAGCUUGCAUAGUAUUUUCAAA | 0.284 ± 0.044 | 0.00307 ± 0.0029
UCCUGCUACAGCUUGCAAUGUAUUUAGUUA | 0.516 ± 0.048 | 0.0088 ± 0.0023
UCCUGGUACAGCUUGCAUAGUAUAAUGUUA | 0.229 ± 0.032 | 0.0143 ± 0.0036
UCCUGGAUCAGCUUGCAUACUAUUUAGUUA | 0.318 ± 0.023 | 0.0356 ± 0.0087
UCCUCCUACAGCUUGCAUAGUAUUUUCUUA | 0.299 ± 0.039 | 0.0157 ± 0.0056

Sequence | pre-steady-state target cleavage rate [1] | pre-steady-state target cleavage rate [2]
UCCUGGAUGUCAUUGCAUAGUAUUUAGUUA | 0.061 ± 0.0085 | 0.00816 ± 0.0032
UCCUGGUACUGCUUGCAUAGUAUUUAGAAA | 0.0634 ± 0.018 | 0.00412 ± 0.0024
UCCUGGAUGAGCUUGCAAAGUAUUAAGUUA | 0.331 ± 0.035 | 0.00974 ± 0.0037
UCCUGGAUGUGCGUUGCAUAGUAUUUAGUUA | 0.28 ± 0.032 | 0.00987 ± 0.0029
UCCAGCUACAGCUAGCAUAGUAUUUAGUUA | 0.714 ± 0.041 | 0.0136 ± 0.0023
UGGACGUACACCUUGCAUAGUAUUUAGUUA | 0.993 ± 0.036 | 0.0623 ± 0.0094
UCCUGGAUCAAGCUUGCAUAGUAUUUAGUUA | 1.25 ± 0.063 | 0.0662 ± 0.014
AGGACCUAGAGCUUGCAUUGUAUUUAGUUA | 0.965 ± 0.062 | 0.0342 ± 0.0095
UCCUGGUACAGCUUGCAUAGUAUUUUCUAA | 0.176 ± 0.049 | 0.00327 ± 0.0027
UCCUGGAUGUGCUUGCAUAGUCUUUAGUUA | 0.151 ± 0.016 | 0.0403 ± 0.0097
UCCUGGAACAGCUUGCAUAGUAUUUAGUUU [g2:g23:cont:t1U] | 0.994 ± 0.031 | 0.0717 ± 0.015
UCCUGGAUGAGCUUGCAUAGUUAAUAGUUA | 0.0126 ± 0.0049 | 0.00512 ± 0.0023
UCCACGUACAGCUUGCAUACUAUUUAGUUA | 0.376 ± 0.021 | 0.042 ± 0.0089
UCGUCCUACAGCUUGCAUAGUUUUUAGUUA | 0.491 ± 0.017 | 0.0311 ± 0.0085
UCCACCUACAGCUUGCAUAGUUUUAAGUUA | 0.196 ± 0.021 | 0.00782 ± 0.0019
UCGACCUACAGCUAGCAUAGUAUUUACUUA | 0.51 ± 0.027 | 0.0177 ± 0.0043
UCCUGGUACAGCUUGCAAAGUAAUUAGUUA | 0.558 ± 0.066 | 0.0142 ± 0.004
UCCUCGUACACCUUGCAUAGUAUUUAGUUA | 0.866 ± 0.041 | 0.0345 ± 0.0061
UCCUGGAUGUGCUUGCAUAGUACUUUAGUUA | 0.0111 ± 0.0044 | 0.00751 ± 0.0028
UGGACCUACAGCUUGCAUAGUAAUAAGUUA | 0.367 ± 0.047 | 0.00394 ± 0.0024
